Results from PMC12136788.
Residue numbers refer to the chain shown, from its start. The list shows a part of the results.

T1: UNK ZnF1-6 (called full-length) (human, UniProt Q9C0B0 30-357)
T1 sequence: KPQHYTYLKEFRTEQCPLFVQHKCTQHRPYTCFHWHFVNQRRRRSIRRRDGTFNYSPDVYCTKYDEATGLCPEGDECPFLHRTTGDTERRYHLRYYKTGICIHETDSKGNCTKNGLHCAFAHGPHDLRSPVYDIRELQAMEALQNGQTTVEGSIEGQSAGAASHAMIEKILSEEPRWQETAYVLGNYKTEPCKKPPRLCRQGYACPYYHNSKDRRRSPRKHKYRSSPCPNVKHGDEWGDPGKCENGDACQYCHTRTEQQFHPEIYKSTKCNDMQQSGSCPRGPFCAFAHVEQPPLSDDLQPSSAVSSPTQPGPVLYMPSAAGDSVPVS

B1: ENSG00000198589:be:win_2751|CDS|ENSG00000198589|bound_else_gene|NA|bound_elsewhere_windowed (ssRNA)
RNA: GGGAGUUCUACAGUCCGACGAUCAAUCACUCAUUCAAAGGUCACUUUUGAAAUACACAAAGAAAACCUUGCCAAUAUAUUUAGGGAACAGCAAGGAAAAGUUGAUGAAGAAAUAGGGCUGUGUUCUUCAACUUCAGUUCAAGCCAACAGAGGAUUGAGCAUCA
B2: chr4:78448087:78448188:+|CDS|ENSG00000138759|msi1|total|mutant (ssRNA)
RNA: GGGAGUUCUACAGUCCGACGAUCGCCUCUGGAGAAUGGGAGAGUUUCCGUCCAGGGCUCAACCUUCACCUACCAGGAUAUCCCCGCUGGGCUGGUUGGGUAUGUGCCCCGUGUCCCUGGCAUGGUCGUGGAUGAGUUCCAGUUCAACAGAGGAUUGAGCAUCA
B3: chr2:96252317:96252350:-|3pUTR|ENSG00000135956|msi1_unk|FALSE|overlapping (ssRNA)
RNA: GGGAGUUCUACAGUCCGACGAUCGUGUCCCCUGCUGAGCUGAAAAGGAAAUGGAUUCCAAUCUCUUCCAACCUUUAAGGUGAUAGAUAGUUUGAGCAAGACUGGAGAAUGGACAACACUAUGAAGCUGUGGCUAGAAAGGGACCAACAGAGGAUUGAGCAUCA
B4: chr12:30629720:30629821:-|3pUTR|ENSG00000133704|msi1|total|mutant (ssRNA)
RNA: GGGAGUUCUACAGUCCGACGAUCCUUCUUGCUUUCUCACCUAUUUGAAUUUUCUCCUACCUAAUUUGUUUGUGUCUUUAUUACCGCUCAGUUUGACUUCUCAAACUUUUCAAGGGUUGGGGCAGCUGCACUUUCCGGUUGCCUCAACAGAGGAUUGAGCAUCA
B5: chr12:109554177:109554278:-|3pUTR|ENSG00000139428|unk|total|mutant (ssRNA)
RNA: GGGAGUUCUACAGUCCGACGAUCUUGCUAUGUGCAGUGCCCUGAGCCAAGUGUUCCACAGACAUUAUCUCAUUUGAACCCCACCGCAGCCCUGGAAGGAGGCAUUGGGUGGGGAACCAAGUUGUCCUGGGGAGUCAGUGCCAACAACAGAGGAUUGAGCAUCA
B6: chr2:130462818:130464144:-|CDS|ENSG00000196834|control|control|control (ssRNA)
RNA: GGGAGUUCUACAGUCCGACGAUCACCACCAUGUACCCUGGCAUGGCCCACAGAAUGCAGAAGGAGAUCGCUGCCCUGGCGCCUAGCAUGUUGAAGAUCAGGAUCAUUGCUCCUCCCAAGCGCAAGUACUCCGUGUGGGUCGGUCAACAGAGGAUUGAGCAUCA
B7: chr6:132328510:132328611:-|CDS|ENSG00000079931|msi1|FALSE|unique (ssRNA)
RNA: GGGAGUUCUACAGUCCGACGAUCUUGUGGGAUGUUGUAGGGUGGUCUUAUUUAUUGUGUCCUCCCUCUCAUUUAUGUUCGUGUAGGUUGAGCCAGUGAUACAGAGAGGCCAUGAGAGUCUGGUGCACCACAUCCUGCUCUAUCCAACAGAGGAUUGAGCAUCA
B8: ENSG00000198589:be:win_8151|CDS|ENSG00000198589|bound_else_gene|NA|bound_elsewhere_windowed (ssRNA)
RNA: GGGAGUUCUACAGUCCGACGAUCAGACUUGUUGAGGACCUUGGAGGGUCCUGAAAACUGCCUGAAACCAAAACUCAUUCAGGCUUCAAGAGAGGGUCAUUGUGUCAUAUUCUAUGAAAACGGCCUCUUCUGUACAUUCAGUGUCAACAGAGGAUUGAGCAUCA
B9: chr10:119167843:119167906:-|3pUTR|ENSG00000165672|msi1_unk|total|mutant (ssRNA)
RNA: GGGAGUUCUACAGUCCGACGAUCUGCAUGAUCCCUCAUCCCUGAAAUUGAGUUUAUGCCGUCAUUUUACUUAUUUUAUUCAUCCGCUAACUUUGUCUAUGUAUAUUUCCCGAUAUUGAUCCGUGUAAUCGAUUAUAAAGGAUACAACAGAGGAUUGAGCAUCA
B10: chr9:125307754:125307855:+|CDS|ENSG00000165219|unk|FALSE|unique (ssRNA)
RNA: GGGAGUUCUACAGUCCGACGAUCGGCUCUUGACAAUUUAUUGGCAAACCUACCCCCGGCCAAGCCAGGAAAAAGUAGCAGUUUAGAAAUGACUCCCUACAAUACACCUCAGCUAUCUCCAGCAACCACUCCAGCAAAUAAAAACAACAGAGGAUUGAGCAUCA
B11: ENSG00000136451:be:win_2601|3pUTR|ENSG00000136451|bound_else_gene|NA|bound_elsewhere_windowed (ssRNA)
RNA: GGGAGUUCUACAGUCCGACGAUCCACUAACUAGGUAGUGUAUGCCCCUUCAGAACAUGCAGAGUGUAUCUUUUUUUAAAUUUCUCCUUCCGUUUCUUAAGUAUUGCGCAGAUUUGUUCAACUUUGUAAAUAUGGACAUCACUUCAACAGAGGAUUGAGCAUCA
B12: chr1:209614869:209615270:-|three_prime_utr|ENSG00000196878|control|control|control (ssRNA)
RNA: GGGAGUUCUACAGUCCGACGAUCUUCCAUCUCCAGGAGACUUUCAUGCAGCCUAAAGUACAGCCUGGACCACCCCUGGUGUGUAGCUAGUAAGAUUACCCUGAGCUGCAGCUGAGCCUGAGCCAAUGGGACAGUUACACUUGACAACAGAGGAUUGAGCAUCA
B13: ENSG00000090857:stop:overlap|stop_codon|ENSG00000090857|stop_codon|NA|stop_codon (ssRNA)
RNA: GGGAGUUCUACAGUCCGACGAUCGGUGGAUGGAGAAACAUGGAUUUGAGAGGCCAAAGUACUUUGUUCCCCCCGACAAGGGCUAGAAUGUGUUCACAGAAGAAAAAGAACCACGUGGACUACACUAAACUCUACAGGGCCUUGCAACAGAGGAUUGAGCAUCA
B14: chr6:7881277:7881391:+|3pUTR|ENSG00000153162|unk|total|mutant (ssRNA)
RNA: GGGAGUUCUACAGUCCGACGAUCGCUGUUUAUGAACGGAAAUCAUGAUUUCCCUUGCCGAAAGUGAGGCUCAGAUUAAAUUUCCGAAUAUUUUCUAAAUGUCUUUUUCACAAUCAUGUACUGGGAAGGCAAUUUCAUACUAAACAACAGAGGAUUGAGCAUCA
B15: chr3:170465896:170466000:-|3pUTR|ENSG00000013293|unk|total|mutant (ssRNA)
RNA: GGGAGUUCUACAGUCCGACGAUCACUCCGGCCGUUGCAUUCCAUGAGAUCACAUUUCACUUCUGAACCUUAUUCCUUGGGGCCCGCUCACUUUCAGAGGUGUAUUUUUUUUUCCUGUUAUUUCCCAGAGCCGUUUCACUGAAGCAACAGAGGAUUGAGCAUCA
B16: chr7:5977587:5977790:-|CDS|ENSG00000122512|control|control|control (ssRNA)
RNA: GGGAGUUCUACAGUCCGACGAUCCAAAAUUGUAUUCUUUUAGCUCCAGUCACUGAAAGGGCUAAACUGAUUUCCUUGCCAACUAGUAAAAACUGGACCUUCGGACCCCAGGACGUCGAUGAACUGAUCUUCAUGCUGAGCGACCAACAGAGGAUUGAGCAUCA
B17: chr3:23954599:23954720:+|CDS|ENSG00000174738|unk|total|mutant (ssRNA)
RNA: GGGAGUUCUACAGUCCGACGAUCAGUGAGGGUUCUGAGAACCGUUUCCAGUCCUCCUCCUCUUCUGUUCCAUCUUCUCCAAACCGCUCUAAUUCUGAUACCAAUGGUAAUCCCAAGAAUGGUGAUCUCGCCAAUAUUGAAGGCCAACAGAGGAUUGAGCAUCA
B18: chr19:10690846:10690947:+|3pUTR|ENSG00000129351|msi1|FALSE|bound_elsewhere (ssRNA)
RNA: GGGAGUUCUACAGUCCGACGAUCGAAAGAGGUGAAAGAACAAGUUGUGUGCUAGAAAACUUUUGAGGAAUUCUUAUUUGUGUUAGAGCAGAGGAGGUCCCAGAUACCAAGUGGCGCCUCCCAGGAAAGGCUGGGAGAAGAGGUCAACAGAGGAUUGAGCAUCA
B19: chr11:35726083:35726184:+|CDS|ENSG00000166326|msi1|total|mutant (ssRNA)
RNA: GGGAGUUCUACAGUCCGACGAUCGAGGCAAUGGCCACAGCUCAUGUGACUGAGAUACUGGCAGACAUCCAAUCCCACAUGGACCGGUUGAUGACUCAGAUGGCCCAAGCCAAGGAACAACUUGAUACCUCUAAUGAAUCAGCUCAACAGAGGAUUGAGCAUCA
B20: chr9:124878635:124878736:-|3pUTR|ENSG00000136935|msi1|FALSE|unique (ssRNA)
RNA: GGGAGUUCUACAGUCCGACGAUCCCAGCCAUUGAACUGGUCCCACACGCACCCCAGGCCCCACUCCUCGGCAGUUUCAGGUGUAGCUGUGGGGCCCGUUCCUAGGUCUGUACUCACUUUAGGGAGGCUUCACUGACUAGGCUUCAACAGAGGAUUGAGCAUCA
B21: chr1:32075697:32075801:+|CDS|ENSG00000121775|unk|total|mutant (ssRNA)
RNA: GGGAGUUCUACAGUCCGACGAUCCGAGCUGCCAGUCCAGGCCAGCAUUCUGUUUGAGUUGCAGCUCUUCUUCUGCCAGCUCACCGCACUCUUCGUCCACUACAUCAACAUCUACAAGACAGUGUGGUGGUAUCCACCUUCCCACAACAGAGGAUUGAGCAUCA
B22: chr9:125307754:125307855:+|CDS|ENSG00000165219|unk|total|mutant (ssRNA)
RNA: B10 RNA with U75C, A76C, U83C, A84C

What follows are binders tested against T1, UNK ZnF1-6 (called full-length) (assay: nsRBNS (natural sequence RNA bind-n-seq); RBNS binding buffer (assumed for nsRBNS): 25 mM Tris pH 7.5, 150 mM KCl, 3 mM MgCl2, 0.01% Triton X-100, 500 ug/ml BSA, 20 U/ml SUPERase-In, 4 C; UNK is unkempt and MSI1 is Musashi-1; names of the RNAs are library labels; protein concentration not given here; high values mean tight binding).
B1 showed a binding signal of 0.508 enrichment R.
B2 showed a binding signal of 0.79 enrichment R.
B3 gave a binding signal of 0.977 enrichment R.
For B4, the binding signal was 0.697 enrichment R.
With B5 the binding signal was 0.622 enrichment R.
For B6, the binding signal was 0.81 enrichment R.
B7 showed a binding signal of 0.69 enrichment R.
In the case of B8, the binding signal is reported as 0.381 enrichment R.
For B9, the binding signal was 0.818 enrichment R.
Work on B10 yielded a binding signal of 0.755 enrichment R.
Work on B11 yielded a binding signal of 1.27 enrichment R.
For B12, the binding signal was 0.651 enrichment R.
B13 was tested, and the binding signal was 0.753 enrichment R.
B14 showed a binding signal of 0.508 enrichment R.
With B15 the binding signal was 0.826 enrichment R.
B16 was tested, and the binding signal was 1.01 enrichment R.
B17 showed a binding signal of 0.57 enrichment R.
B18 was tested, and the binding signal was 0.982 enrichment R.
Binder B19 has a binding signal of 0.555 enrichment R.
For B20, the binding signal was 0.711 enrichment R.
For B21, the binding signal was 0.524 enrichment R.
B22 gave a binding signal of 0.573 enrichment R.
